Laboratory results published in PubChem BioAssay AID761 (NMMLSC, 2007).
The campaign covered roughly 190,000 compounds. About 400 (0.21%) were called active. The inconclusive results got no clear call from the source; some entries with a clear call stand among them for comparison.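 How the source made its calls: active means percent activity GTP binding at least 20 points away from the 100% baseline, either down as inhibitor or up as activator; inconclusive means compound flagged as likely green fluorescent from well-wide comparison; inactive means the rest.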

biological target: Cell division control protein 42 homolog (Homo sapiens) (UniProt P60953); test: wildtype Cdc42 fluorescent GTP binding changes, either direction – biochemical, multiplex bead flow cytometry, Bodipy-GTP, primary screen (AID 761); settings: GST-Cdc42 beads, at 10 µM, actives lie on both sides;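 further: median bead fluorescence of bound Bodipy-FL-GTP at 100 nM; 0% = excess unlabeled GTP control and 100% = no compound control; below 100% means less GTP binding so inhibitor and above means activator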
Chain of UniProt P60953 (P60953 whole entry, looked up): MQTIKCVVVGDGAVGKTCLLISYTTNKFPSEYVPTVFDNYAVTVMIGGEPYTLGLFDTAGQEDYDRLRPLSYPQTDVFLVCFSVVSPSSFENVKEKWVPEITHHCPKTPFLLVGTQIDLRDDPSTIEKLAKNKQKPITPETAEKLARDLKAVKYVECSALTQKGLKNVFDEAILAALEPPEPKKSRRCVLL

Row | SMILES | percent activity (GTP binding)
1 | CCC1=NN2C(=N)/C(=C\c3cccn3-c3ccc(C)cc3C)C(=O)N=C2S1 | inconclusive: 87%
2 | CCOc1ccc(-n2c(C)nc3cc(C(=O)NCc4ccco4)ccc32)cc1 | inconclusive: 95%
3 | CC(C)(C)C(=O)/C(C#N)=C/c1ccc(O)cc1 | inconclusive: 92%
4 | O=C(CCOc1ccccc1)Nc1nnc(-c2ccc3c(c2)OCCO3)o1 | inactive: 89%
5 | COC(=O)c1ccccc1NC(=O)CN(Cc1ccccc1)S(C)(=O)=O | inconclusive: 102%
6 | Cc1cccc(NC(=O)CSc2nc3c([nH]c4ccccc43)c(=O)n2C)c1 | inactive: 99%
7 | S=c1nc2ccccc2c2nc(-c3ccccc3)[nH]n12 | inconclusive: 94%
8 | O=C(Nc1ccc(C(=O)O)cc1)/C(=C\c1ccco1)NC(=O)c1ccccc1 | inconclusive: 95%
9 | Cc1cc(C)c(C(=O)Cn2cnc3cc([N+](=O)[O-])ccc3c2=O)cc1C | inconclusive: 78%
10 | COc1ccccc1C(=O)Oc1ccc(N2C(=O)CCC2=O)cc1 | inconclusive: 98%
11 | COc1ccc(/C=C/C(=O)OCC(=O)NC(=O)NC(C)(C)C)cc1 | inactive: 96%
12 | COc1ccc(C2=Nc3ccc(Br)cc3C(c3ccccc3)N2CC(=O)NN)cc1 (stereo not given) | inconclusive: 92%
13 | O=c1[nH]c(N/N=C/c2ccc(O)cc2)nc2ccccc12 | inactive: 83%
14 | CSc1nc2c(c(-c3ccc(O)cc3)c1C#N)CCC2 | inconclusive: 89%
15 | COc1ccc(NC(=O)Cc2c(SC)c3ccccc3n2Cc2ccccc2)cc1 | inconclusive: 107%
16 | Cc1cccc(NC(=O)CN2C(=O)N/C(=C/c3ccc(C)s3)C2=O)c1 | inconclusive: 104%
17 | CCOC(=O)N1CCC(NC(=O)c2cc(C(=O)Nc3cccc(OC)c3)ccc2CO)CC1 | inconclusive: 101%
18 | CC1CCC2C(=O)N(c3ccc(NC4CCN(Cc5ccccc5)CC4)c([N+](=O)[O-])c3)C(=O)C2C1 (stereo not given) | inconclusive: 90%
19 | O=C(CCN1CCc2ccccc2C(c2ccccc2)C1)c1ccc2c(c1)OCCO2 (stereo not given) | inconclusive: 93%
20 | C=C1CSc2nc(=O)c3c(C)c(C)sc3n21 | inconclusive: 92%
21 | CN1C(=O)/C(=C2\SC(N)=NC2=O)c2ccccc21 | inconclusive: 79%
22 | CCOc1ccc(C(=O)N/N=C(/C)C2C(=O)c3ccccc3C2=O)cc1 | inconclusive: 94%
23 | Cn1cccc1-c1cc(C(=O)N/N=C/c2cccc(O)c2)[nH]n1 | inactive: 96%

Row | SMILES | percent activity (GTP binding)
24 | CC(C)(C)N(NC(=O)Nc1ccc(Cl)c(Cl)c1)C(=O)c1ccccc1 | inconclusive: 107%
25 | COc1cc(-c2c(C#N)c(=O)[nH]c3c2c(C)nn3-c2ccccc2)ccc1O | inconclusive: 90%
26 | CC(C)(C)NC(=O)COc1ccc(CNCc2ccccn2)cc1 | inconclusive: 92%
27 | CSc1nc(C)cc(SCC(=O)N/N=C/c2ccccc2)n1 | inconclusive: 88%
28 | COc1ccc(C)cc1N(CC(=O)N1CCc2ccccc2C1)S(C)(=O)=O | inconclusive: 93%
29 | O=C(CSCc1ccc(Cl)cc1)Nc1ccc2c(c1)OCCO2 | inactive: 98%
30 | COc1ccc(C2=Nn3c(nnc3-c3ccco3)SC2)cc1 | inconclusive: 79%
31 | COc1cccc(-n2nnc3c(=O)n(CC(=O)N4CCCc5ccccc54)cnc32)c1 | inactive: 102%
32 | CCOc1cc(/C=C(/C#N)c2nc3ccccc3[nH]2)ccc1OCc1ccc(C(=O)O)o1 | active: 77%
33 | CCc1nc(N)c(C#N)c(-c2ccc(F)cc2)c1C | inconclusive: 104%
34 | CSc1nc2nc3c(cc2c(=O)n1-c1ccccc1)COC(C)(C)C3 | inconclusive: 94%
35 | O=C(CN1CCCCC1)N1CCCc2ccccc21 | inactive: 104%
36 | COc1ccc(Br)cc1/C=N/NC(=O)c1cccc(S(=O)(=O)N2CCOCC2)c1 | inconclusive: 95%
37 | Cc1nc2c(-c3ccc(Cl)cc3)c(C)[nH]n2c(=O)c1Cc1ccccc1 | inconclusive: 76%
38 | COc1cc(C(=O)Nc2nc(-c3cccs3)cs2)cc(OC)c1OC | inconclusive: 95%
39 | O=C(CNC(=O)c1cccs1)OCC(=O)c1ccc(Br)cc1 | inconclusive: 96%
40 | O=C(COC(=O)/C=C/c1cccc(Cl)c1)NCCC1=CCCCC1 | inconclusive: 94%
41 | Cn1c(NC(=O)Cc2cccc3ccccc23)cc(=O)n(C)c1=O | inconclusive: 90%
42 | Cn1c(SCC(=O)Nc2cc(C(C)(C)C)nn2-c2ccccc2)nc2ccccc21 | inconclusive: 154%
43 | O=C(Nc1c(F)cccc1F)c1cnc(N2CCN(c3ccccn3)CC2)c2ccccc12 | inactive: 103%
44 | N#Cc1cc2ccc(N3CCOCC3)cc2cc1C#N | inconclusive: 106%
45 | COc1cccc(=O)c2c(C)n(-c3cc(C)cc(C)c3)c(C)c12 | inconclusive: 107%
46 | CCN(CC)S(=O)(=O)c1ccc(C(=O)Nc2nnc(C(C)C)s2)cc1 | inconclusive: 104%

Row | SMILES | percent activity (GTP binding)
47 | CCCC(=O)N(c1ccc(OC)cc1)C1C=CS(=O)(=O)C1 (stereo not given) | inconclusive: 108%
48 | CCc1sc(C(=O)Nc2ccc(F)cc2C)cc1C | inactive: 99%
49 | CCc1sc(C(=O)NCc2ccccc2)cc1C | inconclusive: 91%
50 | Cc1cc(N2CCN(c3ccccn3)CC2)n2c(nc3ccccc32)c1C#N | inconclusive: 88%
51 | COc1ccc(C(=O)N[C@H](C(=O)OCc2cc(=O)oc3cc(C)ccc23)C(C)C)cc1 | active: 33%
52 | Cc1c(NC(=O)c2nn3c(c2Br)NC(c2ccccc2)CC3C(F)(F)F)c(=O)n(-c2ccccc2)n1C (stereo not given) | inactive: 102%
53 | COc1ccc(CNc2nc3c(c(=O)n(Cc4ccc(Cl)cc4)c(=O)n3C)n2C)cc1 | active: 79%
54 | COC(=O)c1c(C)nc(C)c(C(=O)OC)c1-c1cccs1 | inconclusive: 127%
55 | CC1N(C)c2cc(NC(=O)c3cccs3)c(P(=O)(Nc3ccc([N+](=O)[O-])cc3)N3CCOCC3)cc2C1(C)C (stereo not given) | inactive: 97%
56 | O=C(/C=N/O)NCc1ccncc1 | inactive: 96%
57 | CCc1cc2ccc(C)cc2nc1SCC(=O)Nc1cc(OC)c(OC)cc1C(=O)O | inconclusive: 98%
58 | CC(C)C(=O)N1CCN(c2ccccc2NC(=O)c2cccc(Cl)c2)CC1 | inactive: 116%
59 | COc1ccc(Nc2cc(C(=O)NCCCN3CCN(C)CC3)c3ccccc3n2)cc1OC | inconclusive: 128%
60 | NC(=O)c1oc2ccccc2c1NC(=O)c1ccc(F)cc1 | inconclusive: 97%
61 | Cn1nnnc1SCC(=O)Nc1cc(C(C)(C)C)nn1-c1ccccc1 | inconclusive: 105%
62 | CNC(=O)CSc1nc2c([nH]c3ccccc32)c(=O)n1CCOC | inconclusive: 102%
63 | Cc1cc(NC(=O)Cn2c(=O)c3c(ncn3CCC(C)C)n(Cc3ccccc3)c2=O)no1 | inconclusive: 110%
64 | COC(=O)C1=C(C)N(C2CCCCC2)C(=O)/C1=C\c1cccs1 | inactive: 93%
65 | C=CCNC(=O)c1ccc(S(=O)(=O)CC)c(Cl)c1Cl | inactive: 95%
66 | COc1ccc(Cl)cc1NC(=S)N(Cc1cccnc1)Cc1ccco1 | inconclusive: 95%
67 | O=C(O)c1ccc(/C=C/c2nc3sc4c(c3c(=O)[nH]2)CCC4)cc1 | inconclusive: 85%
68 | O=C(CCCN1C(=O)c2cccc3cccc(c23)C1=O)NC1CCS(=O)(=O)C1 (stereo not given) | inactive: 97%
69 | O=S1(=O)N=C(N(CCO)/N=C/C=C/c2ccccc2)c2ccccc21 | active: 79%

Row | SMILES | percent activity (GTP binding)
70 | COc1ccc2nc(NC(=O)c3ccc(NS(=O)(=O)c4cccs4)cc3)sc2c1 | inconclusive: 87%
71 | COCCCNC(=O)c1ccc2c(c1)CCN2S(C)(=O)=O | inconclusive: 94%
72 | COC(=O)/C=C1\NCCSC1=O | inconclusive: 114%
73 | O=C(CCCN1C(=O)/C(=C/c2cccs2)SC1=S)NNC(=O)c1ccccc1O | inconclusive: 94%
74 | O=C(C[n+]1cccc(CNC(=O)c2ccc(OC(F)F)cc2)c1)Nc1ccccc1Cl | inconclusive: 150%
75 | COc1nnc(-c2ccccc2)s1 | inconclusive: 101%
76 | COc1ccc2nc(SCC(=O)NCC(F)(F)F)[nH]c2c1 | inactive: 96%
77 | Cc1ccccc1NC(=O)COC(=O)c1ccc(S(C)(=O)=O)c([N+](=O)[O-])c1 | inactive: 83%
78 | O=C(CN1C(=O)NC2(CCOc3ccccc32)C1=O)Nc1cccc(Cl)c1 (stereo not given) | inactive: 95%
79 | OCCC1CN(CC(c2ccccc2)c2ccccc2)CCN1C1CCCC1 (stereo not given) | inactive: 99%
80 | COc1ccc(N=C2SC(C(=O)Nc3ccc(OC)cc3)CC(=O)N2CCN2CCOCC2)cc1 (stereo not given) | inconclusive: 102%
81 | C=CCN(Cc1cc(OC)ccc1OC)S(=O)(=O)N(C)C | inconclusive: 103%
82 | Cc1nnc(N/N=C/C2CC=CCC2)[nH]c1=O (stereo not given) | inactive: 96%
83 | CCCC1Cc2c(sc3ncnc(N)c23)CO1 (stereo not given) | inconclusive: 91%
84 | COC(=O)C1=C(N)Oc2cc(C)n(Cc3cccnc3)c(=O)c2C1c1ccc(OC)c(OC)c1 (stereo not given) | inconclusive: 104%
85 | O=C(CSc1ncnc2c1oc1ccccc12)Nc1ccc2c(c1)OCCO2 | inconclusive: 96%
86 | Cn1c(SCC(=O)N/N=C/c2ccc([N+](=O)[O-])s2)nnc1-c1ccc(Cl)cc1 | inactive: 100%
87 | COc1cccc(CN(C(=O)Cn2nnc(-c3ccccc3F)n2)C(C(=O)NC(C)(C)C)c2ccncc2)c1 (stereo not given) | inactive: 96%
88 | Cc1ccc(S(=O)(=O)N2CCC(C(=O)Nc3nnc(C45CC6CC(CC(C6)C4)C5)s3)CC2)cc1 | inconclusive: 108%
89 | COc1ccc(NC(=O)c2cc3c(-c4ccc(OC)c(OC)c4)nn(C)c3s2)cc1OC | inconclusive: 90%
90 | COc1ccc(OC)c(C2=Nn3c(nnc3-c3ccco3)SC2)c1 | inconclusive: 94%
